4 molecules from publication PMC3713520 can be followed below.

Sequences of proteins named here, by UniProt entry; tags and fusion partners are left off. A change or cut given only in a name is not applied to a line headed by its entry. Residues count along the entry.
UniProt Q96D31: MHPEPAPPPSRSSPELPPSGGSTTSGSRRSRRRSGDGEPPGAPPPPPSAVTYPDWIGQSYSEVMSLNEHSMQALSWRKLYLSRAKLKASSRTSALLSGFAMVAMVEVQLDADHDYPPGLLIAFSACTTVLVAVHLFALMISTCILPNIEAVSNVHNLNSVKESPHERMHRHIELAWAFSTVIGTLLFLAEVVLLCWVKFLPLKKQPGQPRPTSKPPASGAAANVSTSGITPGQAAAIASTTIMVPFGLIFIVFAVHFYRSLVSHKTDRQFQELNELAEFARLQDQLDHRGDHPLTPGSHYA
GST-Orai1-NT (1–87aa): residues 1-87 of Q96D31
GST-Orai1-CT (228–301aa): residues 228-301 of Q96D31
UniProt Q13586: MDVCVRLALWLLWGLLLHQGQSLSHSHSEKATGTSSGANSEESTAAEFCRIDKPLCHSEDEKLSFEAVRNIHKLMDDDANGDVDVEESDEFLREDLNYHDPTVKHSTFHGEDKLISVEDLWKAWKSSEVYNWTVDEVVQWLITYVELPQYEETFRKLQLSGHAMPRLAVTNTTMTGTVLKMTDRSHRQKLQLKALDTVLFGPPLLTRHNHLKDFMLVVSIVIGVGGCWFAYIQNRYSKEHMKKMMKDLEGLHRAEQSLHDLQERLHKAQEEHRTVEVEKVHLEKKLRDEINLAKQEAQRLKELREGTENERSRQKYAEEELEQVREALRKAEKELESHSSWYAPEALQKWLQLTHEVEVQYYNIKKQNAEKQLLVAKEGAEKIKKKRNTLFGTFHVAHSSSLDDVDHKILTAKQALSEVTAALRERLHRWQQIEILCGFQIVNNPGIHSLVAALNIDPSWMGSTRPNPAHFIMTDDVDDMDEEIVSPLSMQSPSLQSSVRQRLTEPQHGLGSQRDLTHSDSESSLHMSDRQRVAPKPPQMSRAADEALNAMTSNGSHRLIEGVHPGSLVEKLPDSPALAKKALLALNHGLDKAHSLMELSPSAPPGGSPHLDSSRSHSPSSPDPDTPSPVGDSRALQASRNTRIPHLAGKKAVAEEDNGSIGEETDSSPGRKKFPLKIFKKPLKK
GST-CC1-CAD (235–448aa): residues 235-448 of Q13586
GST-CAD (342–448aa): residues 342-448 of Q13586

Numbering of substitutions follows the chain as printed. No constants are given. Whether binding was seen depends on the method and setting. For some assays here: In cells and extracts the contact can be indirect. Some entries that bind do so weakly or less than the wild type. Sequences can lack the tags named with a protein.

In one test the target is T1, YFP-α-SNAP (human) (UniProt P54920).
T1 sequence: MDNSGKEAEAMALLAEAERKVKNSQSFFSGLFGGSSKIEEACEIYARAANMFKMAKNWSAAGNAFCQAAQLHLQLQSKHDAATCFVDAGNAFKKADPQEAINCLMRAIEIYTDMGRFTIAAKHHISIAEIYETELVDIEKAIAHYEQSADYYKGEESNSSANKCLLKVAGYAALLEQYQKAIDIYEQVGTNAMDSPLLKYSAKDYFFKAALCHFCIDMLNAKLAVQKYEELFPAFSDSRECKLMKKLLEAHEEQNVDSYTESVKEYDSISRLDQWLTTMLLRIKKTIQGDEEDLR
In words: co-IP; whole cell lysates of store-depleted HEK 293 cells co-expressing the two proteins; lysis in 1% CHAPS or 1% NP-40, 150 mM NaCl, 50 mM Tris pH 8.0; IP with anti-Myc, anti-Flag, anti-GFP or anti-α-SNAP antibody overnight at 4°C, Protein A Sepharose; Western blot. For orientation: A western blot detects proteins with antibodies after separation by electrophoresis.

For a further test, the target named is T2, YFP-α-SNAP-L294A (human) (UniProt P54920).
T2 sequence: T1 sequence with L294A
The description is as above.

Test [1] has as its target T3, α-SNAP (without YFP, expressed in HEK 293 cells) (human) (UniProt P54920).
T3 sequence: T1 sequence
The test is described as above.

The target of test [2] is Flag-Orai1 (human) (UniProt Q96D31). The test is described as above.
Test [3] addresses Stim1-Myc (UniProt Q13586). The test is described as above.
Another test concerns the target GST-CAD (342–448aa) (UniProt Q13586). In words: pull-down; GST-tagged Stim1 or Orai1 fragments from E. coli immobilised on glutathione resin, incubated with purified His-α-SNAP (10 nM) for 1 hr; washed; Western blot with anti-α-SNAP; both purified.
A further test addresses GST-CC1-CAD (235–448aa) (UniProt Q13586). The description is as above.
Test [4] has as its target GST-Orai1-CT (228–301aa) (human) (UniProt Q96D31). The description is as above.
In test [5] the target is GST-Orai1-NT (1–87aa) (human) (UniProt Q96D31). The description is as above.
Test [6] addresses Flag-Orai1 (human) (UniProt Q96D31). The experiment in a line: pull-down; purified recombinant α-SNAP (100 nM) incubated 1 hr at 4°C with Flag-Orai1, Flag-TRPC6 or Stim1-Myc immunoprecipitates bound to Protein A Sepharose beads; beads washed three times; Western blot with anti-α-SNAP; only the binder purified.
The next test concerns the target T4, Flag-TRPC6 (UniProt Q9Y210).
T4 sequence: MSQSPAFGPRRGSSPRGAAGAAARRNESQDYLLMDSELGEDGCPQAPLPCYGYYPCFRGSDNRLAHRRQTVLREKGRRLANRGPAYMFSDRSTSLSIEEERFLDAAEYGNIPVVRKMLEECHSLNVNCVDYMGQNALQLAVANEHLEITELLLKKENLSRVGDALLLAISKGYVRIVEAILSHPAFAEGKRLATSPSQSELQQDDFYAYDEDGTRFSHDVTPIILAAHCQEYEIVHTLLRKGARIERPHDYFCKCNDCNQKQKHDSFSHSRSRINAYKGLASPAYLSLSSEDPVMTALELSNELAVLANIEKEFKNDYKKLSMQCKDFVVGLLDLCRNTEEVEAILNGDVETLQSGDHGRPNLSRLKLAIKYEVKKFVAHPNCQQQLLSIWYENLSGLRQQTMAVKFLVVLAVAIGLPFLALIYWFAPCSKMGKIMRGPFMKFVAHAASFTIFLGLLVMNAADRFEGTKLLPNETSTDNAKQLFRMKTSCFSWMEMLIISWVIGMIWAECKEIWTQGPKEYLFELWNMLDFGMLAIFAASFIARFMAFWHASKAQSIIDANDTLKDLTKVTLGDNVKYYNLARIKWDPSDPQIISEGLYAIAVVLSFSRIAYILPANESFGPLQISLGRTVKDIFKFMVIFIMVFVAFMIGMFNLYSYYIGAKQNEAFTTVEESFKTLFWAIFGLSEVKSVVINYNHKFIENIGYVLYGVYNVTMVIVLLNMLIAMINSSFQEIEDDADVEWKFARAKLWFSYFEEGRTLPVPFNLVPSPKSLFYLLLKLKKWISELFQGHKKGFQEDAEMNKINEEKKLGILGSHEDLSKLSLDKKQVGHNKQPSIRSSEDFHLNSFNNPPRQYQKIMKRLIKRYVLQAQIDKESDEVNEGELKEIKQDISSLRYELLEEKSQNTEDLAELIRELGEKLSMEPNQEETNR
The description is as above.

Test [7] addresses Stim1-Myc (UniProt Q13586). The test is described as above.

Take Stim1-Myc (from UniProt Q13586 23-685): the binding result in the test with YFP-α-SNAP (human) and in the test with YFP-α-SNAP-L294A (human) was “binds” each time.

In the case of Flag-Orai1 (from UniProt Q96D31 1-301), the binding entry (in the test with YFP-α-SNAP (human); in the test with YFP-α-SNAP-L294A (human); in test [1]) was “binds” in each case.

B1: YFP-α-SNAP (protein, UniProt P54920 1-295)
chain: T1 sequence
With B1, the binding entry with Flag-Orai1 (human) [2] and with Stim1-Myc [3] was “binds” throughout.

B2: purified recombinant α-SNAP (His-α-SNAP) (protein, UniProt P54920 1-295)
chain: T1 sequence
For the molecule B2, the binding result in the test with GST-CAD (342–448aa) is given as “binds”; in the test with GST-CC1-CAD (235–448aa), “binds weakly”; in [4] it was “binds”; in test [5] it was “binds weakly”; with Flag-Orai1 (human) [6], “binds”; with Flag-TRPC6, “no binding (tested: 100 nM)”. Besides, the binding entry in the test with Stim1-Myc [7] was “binds”.
